Assay results as given in PubChem BioAssay AID686971 (National Center for Advancing Translational Sciences (NCATS), 2013).
Out of some 360,000 compounds screened, about 7,500 (2.1%) were called active. Inconclusive results, whose numbers are uncertain, are shown with a selection of clear calls. Calls come from the whole dose curve; as a rule, active = well fitted cell-killing curve with a large enough effect; inconclusive = small, poorly fitted or top-dose-only effect, or effect the other way, or another doubt; inactive = no such curve, though single readings can be large or run the other way. Potencies of inconclusive entries are left out as doubtful fits.

Experiment: qHTS for induction of synthetic lethality in tumor cells producing 2HG: qHTS for the HT-1080-IDH1KD cell line;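 for activity, negative = toxicity: 0% = DMSO wells and -100% = cell-free medium wells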
Conditions: HT-1080 IDH1 knockdown viability, ATP luminescence, 48 h; activity, negative = toxicity: at 46.1 µM (top of the series) unless noted
Method in brief: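 Luminescent ATP read-out (CellTiter-Glo, 10 min at room temperature) after 48 h compound exposure at 37 °C gave viability of IDH1-knockdown HT-1080 cells. Activity was normalised to DMSO and cell-free wells, then fitted as concentration-response curves.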
Potency is the fitted concentration of half-maximal effect; tags give direction and shape of the fitted curve.

Which Potency does the source give for `COc1ccc2c(c1)c(CC(=O)Nc1cccc(S(N)(=O)=O)c1)c(C)n2C(=O)c1ccc(Cl)cc1` here?
The Potency was inconclusive [cytotoxic, partial curve].

With `CN(C)/C=C(\C#N)C(=O)N/N=C/c1ccccc1` as the molecule, how does the Potency read?
The Potency was “inactive”.

With `Cc1cccc(N2CCN(C(=O)c3ccc(N4CCCC4=O)cc3)CC2C)c1` (stereo unspecified) as the molecule, how does the Potency read?
The Potency was “inactive”.

For `O=C(c1cccs1)N1C[C@@H](O)[C@H](n2cc(-c3ccc(F)cc3)nn2)C[C@@H]1c1ccc(Cl)cc1`, which Potency is on record?
The Potency was inconclusive [cytotoxic, single point].

With `COc1ccc(Cl)cc1S(=O)(=O)Nc1ccc2c(c1)n(C)c(=O)n2C` as the molecule, how does the Potency read?
The Potency was inconclusive [cytotoxic, partial curve].

For `Cn1ncc([N+](=O)[O-])c1C(=O)N/N=C/c1ccc(F)cc1`, which Potency is on record?
The Potency was “inactive”.

Which Potency does the source give for `Cc1ccc(C)c(N(CC(=O)NC2CCCC2)C(=O)c2oc(C(C)(C)C)cc2C)c1` here?
The Potency was inconclusive [cytotoxic, single point].

Which Potency does the source give for `O=C(COc1ccc(F)cc1)NNC(=O)c1cc2ccccc2oc1=O` here?
The Potency was “inactive”.

Which Potency does the source give for `O=C(NCCc1ccc(Cl)cc1)c1cc(S(=O)(=O)N2CCCC2)ccc1F` here?
The Potency was “inactive”.

For `Cc1ccccc1NC(=O)Cn1nnc(C(=O)NCc2ccco2)c1N`, which Potency is on record?
Its Potency is inconclusive [cytotoxic, single point].

For `COc1ccc(C2OC(=O)c3ccccc3S2)cc1` (stereo unspecified), which Potency is on record?
The Potency was inconclusive [cytotoxic, single point].

For `N/C(=N\OC(=O)c1ccc2c(c1)OCO2)c1ccncc1`, which Potency is on record?
Its Potency is “inactive”.

Which Potency does the source give for `Cc1ccc(-c2nc(SC(C)C(=O)NC3CC3)n[nH]2)cc1` (stereo unspecified) here?
Its Potency is “inactive”.

For `CCCN(CCC)CCCNC(=S)Nc1ccc2nc(N3CCCC3)cc(C)c2c1`, which Potency is on record?
Its Potency is inconclusive [cytotoxic, single point].

With `Cn1c(=O)c2c(SCC(=O)Nc3ccccc3F)nc(-c3ccccc3F)nc2n(C)c1=O` as the molecule, how does the Potency read?
Its Potency is “inactive”.

Which Potency does the source give for `O=C(c1ccc(OC2CCN(Cc3ccccc3C(F)(F)F)CC2)cc1)N1CCCCC1` here?
Its Potency is inconclusive [cytotoxic, single point].

Which Potency does the source give for `O=C(NC1CCCCC1)C(c1ccc(F)cc1)N(Cc1ccccc1)C(=O)CN1C(=O)c2ccccc2S1(=O)=O` (stereo unspecified) here?
Its Potency is “inactive”.

Which Potency does the source give for `Cc1ccc(C2NC(=O)NC(O)(C(F)(F)F)C2C(=O)c2cccs2)o1` (stereo unspecified) here?
The Potency was inconclusive [rising, full curve].

Which Potency does the source give for `C=CCN1c2ccccc2[C@]23C[C@@H](C(=O)OC)N(C(=O)c4cccs4)C2=NC(C(=O)OC)=C(C(=O)OC)[C@H]13` here?
Its Potency is inconclusive [cytotoxic, single point].

With `OCC1OC(n2cnc3c(SCc4ccccc4)ncnc32)C(O)C1O` (stereo unspecified) as the molecule, how does the Potency read?
The Potency was active: 23.1 µM.

Which Potency does the source give for `COc1cc(/C=C2\COC/C(=C\c3cc(OC)c(OC)c(OC)c3)C2=O)cc(OC)c1OC` here?
The Potency was active: 0.517 µM.

For `COC(=O)C(NNc1ccccc1)(NC(=O)c1ccc(F)cc1)C(F)(F)F` (stereo unspecified), which Potency is on record?
The Potency was inconclusive [cytotoxic, single point].

Which Potency does the source give for `CCOC(=O)c1cc2sccc2n1CC(=O)OC(C)C` here?
Its Potency is “inactive”.

For `O=C1/C(=C\c2ccc(Cl)cc2)CCC1CNc1ccc(Cl)cc1` (stereo unspecified), which Potency is on record?
The Potency was inconclusive [cytotoxic, single point].

Which Potency does the source give for `Cc1ccccc1N1C(=O)CC(c2c[nH]c3ccccc23)C1=O` (stereo unspecified) here?
Its Potency is “inactive”.

Which Potency does the source give for `Cc1cccc(OC(C)C(=O)N2CCCN(C)CC2)c1C` (stereo unspecified) here?
Its Potency is “inactive”.

For `COc1cc2[nH]c(=S)n(Cc3ccco3)c(=O)c2cc1OC`, which Potency is on record?
Its Potency is inconclusive [cytotoxic, single point].

Which Potency does the source give for `O=C(c1ccco1)N1CCN(C(=O)C2CCCc3c2[nH]c2ccc(Cl)cc32)CC1` (stereo unspecified) here?
The Potency was inconclusive [cytotoxic, partial curve].

For `CC(C)(C)C(=O)Nc1cc(S(=O)(=O)Nc2ccc(Cl)cc2)ccc1O`, which Potency is on record?
Its Potency is “inactive”.

For `COc1cccc(-c2cc(NC(C)=O)c3ncc(-c4cccc(C(C)=O)c4)n3c2)c1`, which Potency is on record?
Its Potency is “inactive”.

For `CCOC(=O)C1(Cc2cccc(OC)c2)CCN(Cc2cnc(C)s2)CC1`, which Potency is on record?
Its Potency is “inactive”.

For `CC(=O)[C@@H]1[C@@H](C(=O)c2ccc(C)cc2)[C@]2(C(=O)Nc3ccccc32)[C@H]2C=Cc3cc(F)ccc3N12`, which Potency is on record?
The Potency was inconclusive [cytotoxic, single point].

Which Potency does the source give for `O=C(Nc1ccc2c(c1)CCC2)c1ccc(Br)o1` here?
The Potency was inconclusive [cytotoxic, single point].

Which Potency does the source give for `Cn1nc(C(C)(C)C)cc1NC(=O)C1(C)CCN1C(=O)C1(c2ccccc2)CCCC1` (stereo unspecified) here?
Its Potency is inconclusive [cytotoxic, single point].

With `COc1ccc(-c2[nH]nc3nc(N4CCN(C(=O)c5ccoc5)CC4)cc(C(F)(F)F)c23)cc1` as the molecule, how does the Potency read?
Its Potency is inconclusive [cytotoxic, single point].

For `CC(=O)/C(=N/Nc1ccccc1)Sc1nnc(C(O)c2ccccc2)n1-c1ccccc1` (stereo unspecified), which Potency is on record?
Its Potency is “inactive”.

Which Potency does the source give for `Cc1ccccc1OCC(O)CN1CCN(CC(O)COc2ccccc2C)C(C)C1` (stereo unspecified) here?
Its Potency is inconclusive [cytotoxic, partial curve].

For `CC1O[C@@H](O[C@H](C)CC/C=C/C(=O)O)C(O)C[C@H]1O` (stereo partly specified), which Potency is on record?
Its Potency is “inactive”.

With `CC(C)(C)c1ccc(CNC(=O)c2ccc3c(c2)NC(=O)CO3)cc1` as the molecule, how does the Potency read?
The Potency was inconclusive [cytotoxic, partial curve].

For `CCCC(=O)Nc1nnc(SCC(=O)Nc2ccc3c(c2)OCCO3)s1`, which Potency is on record?
The Potency was inconclusive [cytotoxic, partial curve].

For `COc1ccc(/C=N/NC(=S)Nc2ccccc2)cc1COc1ccc(Br)cc1`, which Potency is on record?
The Potency was inconclusive [cytotoxic, single point].

With `CC1=NN(C(=O)c2cccnc2)C(O)(C(F)(F)F)C1` (stereo unspecified) as the molecule, how does the Potency read?
Its Potency is inconclusive [cytotoxic, single point].

Which Potency does the source give for `O=[N+]([O-])c1ccc(NN=Cc2ccccc2O)nc1` here?
The Potency was active: 7.31 µM.

For `CCOc1ccc(NC(=O)C(C)SC(N)=O)cc1` (stereo unspecified), which Potency is on record?
The Potency was inconclusive [cytotoxic, single point].

For `O=c1[nH]c(SCc2nc3c(cnn3-c3ccccc3)c(=O)[nH]2)nc2ccccc12`, which Potency is on record?
The Potency was inconclusive [cytotoxic, full curve].

For `COc1ccc(C(=O)C2CCCN(C(=O)c3ccc(CSC)o3)C2)cc1F` (stereo unspecified), which Potency is on record?
The Potency was “inactive”.

Which Potency does the source give for `OC(c1ccc(-c2ccccc2)cc1)c1ncc(-c2ccc(F)cc2)[nH]1` (stereo unspecified) here?
The Potency was inconclusive [cytotoxic, single point].

With `CC(C)Cc1ccc(CN2CCCC(NC(=O)CCn3cnnn3)C2)cc1` (stereo unspecified) as the molecule, how does the Potency read?
The Potency was “inactive”.

Which Potency does the source give for `Cc1oc(-c2ccc(Cl)cc2)nc1CN1CCCC(C(=O)NCc2cccnc2)C1` (stereo unspecified) here?
Its Potency is inconclusive [cytotoxic, single point].

Which activity, negative = toxicity does the source give for `COc1cc(NC(=O)c2cc(-c3ccco3)on2)c(OC)cc1Cl` here?
The activity, negative = toxicity was inconclusive: -28.5% [cytotoxic].

With `COc1ccccc1-c1cc(NC(C)=O)c2ncc(-c3ccccc3)n2c1` as the molecule, how does the Potency read?
The Potency was inconclusive [cytotoxic, single point].

Which Potency does the source give for `COc1ccc(CC(=O)Nc2ccc(S(=O)(=O)Nc3ncccn3)cc2)cc1OC` here?
Its Potency is “inactive”.

With `O=S1(=O)C=C(Sc2nc3cc(Cl)ccc3o2)c2ccccc21` as the molecule, how does the Potency read?
Its Potency is active: 5.17 µM.

For `CCCCOCCCNC(=O)C[C@@H]1C[C@@]2(C(=O)OC)CC(C)(C)CC=C2N(Cc2cccc3ccccc23)C1=O`, which Potency is on record?
Its Potency is active: 20.6 µM.

Which Potency does the source give for `COc1ccc(-c2ccc3[nH]c4c(c3c2)CCN2C[C@@H]([C@H](C)O)[C@@H](N(C)C(=O)Nc3cc(Cl)cc(Cl)c3)C[C@@H]42)cc1` here?
The Potency was active: 20.6 µM.

Which Potency does the source give for `O=c1cc(C(F)(F)F)nc(-c2ccccc2)[nH]1` here?
Its Potency is inconclusive [cytotoxic, single point].

With `O=C(Nc1ccc(C(F)(F)F)cc1)C1CCN(S(=O)(=O)c2ccc(N3CCCC3=O)cc2)CC1` as the molecule, how does the Potency read?
Its Potency is inconclusive [cytotoxic, single point].

For `COc1ccc(C(C)=O)cc1CN1C(=O)C(C)ON=C1c1ncccc1C` (stereo unspecified), which activity, negative = toxicity is on record?
Its activity, negative = toxicity is inconclusive: 30.2%.

Which Potency does the source give for `CCc1cccc2c(C(=O)CN3C(=O)N(C)C4(CCCCC4)C3=O)c[nH]c12` here?
The Potency was active: 16.4 µM.

For `COc1ccc(S(=O)(=O)N2CCN(C(=O)c3cc(-c4ccc(Br)cc4)n[nH]3)CC2)cc1OC`, which Potency is on record?
The Potency was inconclusive [cytotoxic, single point].

With `O=C(Nc1ccc2c(c1)OCCO2)c1ccccn1` as the molecule, how does the Potency read?
Its Potency is inconclusive [cytotoxic, single point].

With `COc1ccc(NC(=O)c2cc(-c3ccncc3)nc3ccccc23)c(OC)c1` as the molecule, how does the Potency read?
The Potency was inconclusive [cytotoxic, partial curve].

With `CCOc1ccc(CSC(=N)N)cc1[N+](=O)[O-]` as the molecule, how does the Potency read?
The Potency was inconclusive [cytotoxic, single point].

With `Cc1sc2ncnc(SCC(=O)NC(=O)c3cccn3C)c2c1C` as the molecule, how does the Potency read?
The Potency was inconclusive [cytotoxic, full curve, poor fit].

With `CCOc1ccccc1NC(=O)CSc1nnc2c(CC)c(C)nc(N)n12` as the molecule, how does the Potency read?
Its Potency is “inactive”.

With `O=C(/C=C/c1ccc(Br)cc1)NC(=S)NNC(=O)c1ccco1` as the molecule, how does the Potency read?
Its Potency is active: 14.6 µM.

With `Cc1cc(Cl)ccc1OCC(=O)NNC(=O)CCOc1ccccc1` as the molecule, how does the Potency read?
The Potency was “inactive”.

Which Potency does the source give for `CN1CCN(c2ccc(-c3cc(NC=O)c4ncc(-c5ccc(F)cc5)n4c3)cc2)CC1` here?
Its Potency is inconclusive [cytotoxic, single point].

For `O=C(C(=O)N1CCN(c2ccncc2)CC1)c1cccc(Br)c1`, which Potency is on record?
Its Potency is “inactive”.

With `CC(C)n1cc(CN2CCCC(C(=O)Nc3cccc(-c4cc5ccccc5[nH]4)c3)C2)cn1` (stereo unspecified) as the molecule, how does the Potency read?
Its Potency is inconclusive [cytotoxic, single point].

For `COc1ccccc1NCC(O)Cn1c2ccccc2c2ccccc21` (stereo unspecified), which Potency is on record?
The Potency was inconclusive [cytotoxic, single point].
